According to ChEMBL document CHEMBL4888484, “Replenishing the malaria drug discovery pipeline: Screening and hit evaluation of the MMV Hit Generation Library 1 (HGL1) against asexual blood stage Plasmodium falciparum ,using a nano luciferase reporter read-out” (2022):
About 540 (0.36%) of roughly 150,000 compounds showed an effect of 50% or more. This is one part of the list.

Test system: Plasmodium falciparum
Assay: Primary screen in NF54 nanoGlo assay, in single point, at 2uM, 72h; a lower Z score goes with more inhibition
Type: functional, Erythrocyte
Conditions: timepoint 72 hour

SMILES	% Inhibition [%]	Z score
CN(Cc1ccc(F)cc1)c1ccc(OCC(=O)N2CCOCC2)nn1	-4	0.54
CC[C@@]1(C)CCCN(C(=O)C(C)(C)CN)CC1	-5	0.6
COC(=O)[C@H]1CN(S(=O)(=O)c2ccc(Cl)cc2)C[C@@H](C)O1	7	-0.8
O=S(=O)(Cc1ccccc1)NCCn1ccc(-c2cnccn2)n1	18	-2.26
CC1(C)C[C@@H]1NC(=O)c1ccnc2[nH]cnc12	3	-0.47
COC[C@H]1CCCN1C(=O)Nc1ccccc1OCCOc1ccccc1	7	-0.94
Cc1ccc(-c2nc(CN3CC[C@]4(CCCO4)CCC3=O)c(C)o2)cc1	3	-0.62
Cc1csc(NC(=O)N2CCCC[C@H]2c2nc(-c3ccccc3)c[nH]2)n1	-11	1.14
Cc1noc(C)c1CN(C)Cc1nnc(C(C)C)o1	-11	1.37
CC1CN(CC(C)(C)O)CCN1C(=O)NCC1Cc2ccccc21 (stereo not drawn)	12	-1.62
CC1(C(=O)O)CCN(S(=O)(=O)c2csc3ccccc23)CC1	-8	0.97
O=C(Nc1[nH]c(=O)ncc1F)c1cc(F)c(F)cc1Br	91	-7.85
CC(C)Cc1cc(CNC(=O)c2ccc(N3CC(=O)NC3=O)cc2)on1	-15	3.08
CCc1nc(-c2cccc(NC(=O)c3ccc(NC(C)=O)cc3)c2)no1	-22	3.77
CC1(C)CN(c2nnc(Cc3ccccc3)o2)CCO1	0	0.03
Clc1cccc(N2CCN(c3nccn4nc(-c5ccccc5)cc34)CC2)c1	4	-0.64
O=C1C[C@H](C(=O)NC2CCN(Cc3cccnc3)CC2)C2(CCCC2)O1	-11	1.06
Cc1[nH]c(-c2ccc(F)cc2)cc1C(=O)N1CCN(Cc2ccccc2)CC1	-9	1.7
Cn1cncc1C(=O)N1CCCCC[C@@H]1CC(=O)c1ccccc1	-11	1.5
O=C(c1ccc2c(c1)CCC(=O)N2Cc1ccccc1)N1CCN(c2ccccc2F)CC1	-5	0.84
CC(C)Cc1cc(C(=O)N2CC(OCc3ccc(F)cc3)C2)on1	-1	0.2
c1cncc(-c2noc(CN3CCC(OC[C@H]4CCCO4)CC3)n2)c1	-11	1.55
COC[C@H]1CCCN1Cc1cccc(C(=O)Nc2cnccn2)c1	10	-1.43
O=C(OCc1noc(C2CC2)n1)c1ccccc1CN1CCOCC1	-11	0.99
Cc1nn(CCN2CCCCC2)c(C)c1CCO	-8	1.13
CC[C@H]1CCN1S(=O)(=O)C1CCC(C(F)(F)F)CC1 (stereo partly drawn)	-8	0.72
CCOC(=O)c1n[nH]cc1-c1c(-c2ccccc2)ncn1CCc1c[nH]cn1	-7	0.81

SMILES	% Inhibition [%]	Z score
O=C(Cc1n[nH]c(=O)c2ccccc12)N[C@H](c1ccccc1)C1CC1	-2	0.42
Cc1cn2nc(C(=O)N3CCC(NC(=O)c4ccoc4)CC3)cc2c(=O)[nH]1	-2	0.31
O=C(CNC(=O)OCc1ccccc1)N[C@H]1CCCCNC1=O	2	-0.29
CCn1c(C)nc2cc(NS(=O)(=O)c3ccccc3)cc(C(=O)N[C@@H](C)Cc3cccs3)c21	-7	0.85
COc1ccc(Oc2ccc(Cl)cc2NC(=O)c2c(C)oc(C)c2Br)cc1	10	-1.61
O[C@H](COc1ccc(Cl)cc1CN1CCC1)CN1CCCCCC1	-4	0.59
O=C(O)c1cccc(CNCc2ccc3nsnc3c2)n1	-7	1.05
COC[C@H](C)NC(=O)c1ccc(Br)cc1F	-11	1.75
Cc1ccc(C(=O)C(=O)N(Cc2ccco2)[C@H]2CCS(=O)(=O)C2)cc1	2	-0.34
CCOc1ncccc1NC(=O)c1cccc(C)n1	-13	2
O=C(N[C@H]1CCCc2ccccc21)c1cncn1-c1ccc(-c2cc(C(F)(F)F)cc(C(F)(F)F)c2)cc1	-6	0.69
CC(=O)Nc1ccc(OCC(=O)N(C)CCCc2c(C)nn(C)c2C)nc1	-13	2.19
CCOc1ccc(C2=Nc3ccc4ccccc4c3NC(c3ccc(OC)cc3)=N2)cc1OCC	-6	0.71
CC(C)(C)C[C@H]1CCN(C(=O)CS(=O)(=O)C2CC2)C1	-16	2.53
COC[C@H]1CN(c2nc(OC)ncc2Cl)CC(C)(C)O1	-2	0.37
Cc1nn(C)c(C)c1C1OCCC1CNC(C)c1ccccc1Cl (stereo not drawn)	-9	0.82
O=S(=O)(CCc1ccccc1)N1CCC(N2CCC(Oc3ccccc3F)CC2)CC1	-8	1.58
CN(Cc1ccccc1)[C@H]1CCOC2(CCN(C(=O)c3ccccn3)CC2)C1	-14	1.8
COCC(=O)NC1CCN(Cc2nc(-c3ccco3)no2)CC1	-5	1
Cc1[nH]ncc1C(=O)N(C)c1ccc2c(c1)CCO2	-6	0.84
Cc1ccc(C)c(S(=O)(=O)N2CCC3(CC2)NCCN=C3NCc2ccc(C(F)(F)F)cc2)c1	1	-0.1
O=C(NCC1(c2ccncc2)CC1)[C@@H]1CCCN1CC(F)(F)F	-4	0.61
COC(=O)c1ccccc1S(=O)(=O)NCC#N	-8	1.05
O=C(Nc1cncc(F)c1)NC1CCOCC1	-8	1.46
COc1cccc(-c2nc3c([nH]2)CCN(C(=O)CNC(C)=O)C3)c1	-11	1
CN1CCN(C(=O)[C@@H]2CCC[C@@H](NCc3cccc4c3OCO4)CN(C)C(=O)C2)CC1	-7	1.15
CC1CN(S(=O)(=O)c2cc3c(cc2Cl)NC(=O)C3)CC(C)O1 (stereo not drawn)	-18	1.58
